Results as given in article PMC11658185, “Analysis of the quadruple lsu mutant reveals molecular determinants of the role of LSU proteins in sulfur assimilation in Arabidopsis” (The Plant Journal, 2024).
No constants are given. Whether binding was seen depends on the method and setting. Some binding calls cover weakened binding; strength is not graded here.

Columns and labels:
Assay in all cases: two-hybrid; yeast two-hybrid, ORFs in pDEST-GAD or pDEST-GBK (GAL4 AD and BD fusions); the panel of enzymes and LSU proteins tested in both orientations; growth on selection media, plates 3 days at 30°C
[1] = target: T1, sulfite reductase (SiR) (A. thaliana) (UniProt Q9LZ66)
T1 sequence: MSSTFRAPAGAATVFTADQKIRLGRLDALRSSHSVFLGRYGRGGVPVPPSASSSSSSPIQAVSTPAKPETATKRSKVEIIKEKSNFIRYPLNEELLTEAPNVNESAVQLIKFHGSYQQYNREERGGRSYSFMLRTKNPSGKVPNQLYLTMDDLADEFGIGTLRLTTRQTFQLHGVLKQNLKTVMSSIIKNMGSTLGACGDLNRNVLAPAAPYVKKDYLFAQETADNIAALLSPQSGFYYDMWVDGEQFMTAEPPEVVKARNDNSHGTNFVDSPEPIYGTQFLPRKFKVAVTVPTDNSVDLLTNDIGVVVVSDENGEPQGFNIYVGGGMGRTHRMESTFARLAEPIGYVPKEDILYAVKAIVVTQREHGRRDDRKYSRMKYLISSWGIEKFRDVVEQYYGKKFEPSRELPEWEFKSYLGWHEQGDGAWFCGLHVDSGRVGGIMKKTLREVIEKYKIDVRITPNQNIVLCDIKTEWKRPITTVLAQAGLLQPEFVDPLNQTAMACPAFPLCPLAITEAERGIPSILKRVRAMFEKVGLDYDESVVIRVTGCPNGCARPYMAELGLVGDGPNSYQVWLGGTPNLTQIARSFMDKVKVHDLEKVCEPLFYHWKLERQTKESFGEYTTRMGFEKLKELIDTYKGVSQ

[2] = target: T2, adenosine 5' phosphosulfate reductase isoform APR1 (A. thaliana) (UniProt P92979)
T2 sequence: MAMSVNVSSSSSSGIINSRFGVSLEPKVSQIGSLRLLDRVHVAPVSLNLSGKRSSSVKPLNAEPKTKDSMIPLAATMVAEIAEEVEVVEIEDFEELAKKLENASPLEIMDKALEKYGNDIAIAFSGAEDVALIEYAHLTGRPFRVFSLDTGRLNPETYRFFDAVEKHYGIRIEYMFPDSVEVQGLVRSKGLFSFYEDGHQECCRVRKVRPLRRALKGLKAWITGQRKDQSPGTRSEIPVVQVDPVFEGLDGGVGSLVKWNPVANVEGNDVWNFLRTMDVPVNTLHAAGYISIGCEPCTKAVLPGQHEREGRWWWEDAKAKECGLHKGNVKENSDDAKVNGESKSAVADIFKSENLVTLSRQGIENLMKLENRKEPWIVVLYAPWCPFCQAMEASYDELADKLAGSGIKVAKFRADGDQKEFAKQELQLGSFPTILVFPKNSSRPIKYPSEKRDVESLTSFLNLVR

[3] = target: T3, SiR region of amino acids 467-565 (A. thaliana) (UniProt Q9LZ66)
T3 sequence: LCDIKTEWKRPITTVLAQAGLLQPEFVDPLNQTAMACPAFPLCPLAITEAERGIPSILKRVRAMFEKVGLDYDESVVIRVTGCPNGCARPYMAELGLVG

[4] = target: T4, adenosine 5' phosphosulfate reductase isoform APR3 (A. thaliana) (UniProt P92980)
T4 sequence: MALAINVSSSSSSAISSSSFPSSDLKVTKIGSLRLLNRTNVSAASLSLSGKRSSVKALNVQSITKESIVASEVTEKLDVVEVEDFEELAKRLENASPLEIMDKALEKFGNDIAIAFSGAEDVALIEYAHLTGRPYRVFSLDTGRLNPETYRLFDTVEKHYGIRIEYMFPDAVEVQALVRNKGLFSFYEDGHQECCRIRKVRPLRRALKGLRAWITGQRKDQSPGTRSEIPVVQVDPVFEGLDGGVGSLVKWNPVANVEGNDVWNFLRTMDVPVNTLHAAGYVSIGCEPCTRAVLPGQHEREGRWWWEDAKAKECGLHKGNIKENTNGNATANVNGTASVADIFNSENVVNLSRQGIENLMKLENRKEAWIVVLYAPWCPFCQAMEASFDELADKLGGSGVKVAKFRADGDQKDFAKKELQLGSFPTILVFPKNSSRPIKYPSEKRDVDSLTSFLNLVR

[5] = target: T5, SiR C-terminal domain (467-642) (A. thaliana) (UniProt Q9LZ66)
T5 sequence: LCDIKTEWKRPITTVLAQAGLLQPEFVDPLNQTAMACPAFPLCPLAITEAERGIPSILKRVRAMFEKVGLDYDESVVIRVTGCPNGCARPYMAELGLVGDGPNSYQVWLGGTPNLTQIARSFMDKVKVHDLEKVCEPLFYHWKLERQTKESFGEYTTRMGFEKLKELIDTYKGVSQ

[6] = target: T6, adenosine 5' phosphosulfate reductase isoform APR2 (A. thaliana) (UniProt P92981)
T6 sequence: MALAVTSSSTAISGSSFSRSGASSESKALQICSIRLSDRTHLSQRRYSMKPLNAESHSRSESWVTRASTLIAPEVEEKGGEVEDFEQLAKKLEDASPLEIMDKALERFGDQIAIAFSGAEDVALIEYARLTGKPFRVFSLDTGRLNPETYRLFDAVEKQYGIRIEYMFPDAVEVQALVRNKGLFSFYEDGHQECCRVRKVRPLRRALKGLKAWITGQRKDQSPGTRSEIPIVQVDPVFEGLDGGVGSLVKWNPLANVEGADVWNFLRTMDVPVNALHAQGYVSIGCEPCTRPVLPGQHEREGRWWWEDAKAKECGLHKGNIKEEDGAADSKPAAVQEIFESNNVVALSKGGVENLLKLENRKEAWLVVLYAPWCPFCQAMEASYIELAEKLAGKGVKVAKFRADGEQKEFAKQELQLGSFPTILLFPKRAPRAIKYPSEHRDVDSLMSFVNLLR

[7] = target: T7, SiR N-terminal region (1-322) (A. thaliana) (UniProt Q9LZ66)
T7 sequence: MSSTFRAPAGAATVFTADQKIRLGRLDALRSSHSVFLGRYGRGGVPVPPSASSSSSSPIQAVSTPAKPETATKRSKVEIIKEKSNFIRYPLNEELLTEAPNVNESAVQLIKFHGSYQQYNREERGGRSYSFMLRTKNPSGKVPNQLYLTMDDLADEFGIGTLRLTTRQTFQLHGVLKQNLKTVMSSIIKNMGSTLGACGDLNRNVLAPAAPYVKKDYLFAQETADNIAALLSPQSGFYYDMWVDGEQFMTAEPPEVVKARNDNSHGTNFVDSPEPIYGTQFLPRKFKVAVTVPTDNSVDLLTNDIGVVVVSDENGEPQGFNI

B1: LSU1 (RESPONSE TO LOW SULFUR 1) (protein, UniProt Q9SCK1 1-94)
chain: MANRGGCVTVAAEEMDELRRRNIELSREVAEMKTEMIKLWQRTVVAEEAEEQLCSQLAELEVESLEQARDYHDRMLFLMDQISRLSSSSVVSSS
binding [1]: binds
binding [2]: binds
binding [3]: binds
binding [4]: binds
binding [5]: binds
binding [6]: binds
binding [7]: no binding
